Whole data set: some 33,000 sequences, median “E-score (-0.5 to 0.5)” near -0.053, cut for the highest 2% near 0.37. The list shows a part of the results.
Molecular target: Hap1 (UniProt P0CE41)
Test: PBM E-score (8-mer binding enrichment) (E-score (-0.5 to 0.5)); higher = stronger / more preferred TF binding; most listed sequences are background and not binding sites
Details: protein concentration: 200 nM; construct: GST-DNA-binding domain
Summary of the method: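 Universal all-10-mer Agilent arrays, double-stranded by primer extension on fresh or once-stripped slides, were probed with about 100-200 nM GST-tagged yeast transcription factors made by PURExpress. Fluorescent anti-GST detected bound protein, and masliner normalised the scans. E-scores from the Universal PBM Analysis Suite were given to each ungapped eight-base word pooled with its reverse complement.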

Sequence of UniProt P0CE41 (P0CE41 whole entry): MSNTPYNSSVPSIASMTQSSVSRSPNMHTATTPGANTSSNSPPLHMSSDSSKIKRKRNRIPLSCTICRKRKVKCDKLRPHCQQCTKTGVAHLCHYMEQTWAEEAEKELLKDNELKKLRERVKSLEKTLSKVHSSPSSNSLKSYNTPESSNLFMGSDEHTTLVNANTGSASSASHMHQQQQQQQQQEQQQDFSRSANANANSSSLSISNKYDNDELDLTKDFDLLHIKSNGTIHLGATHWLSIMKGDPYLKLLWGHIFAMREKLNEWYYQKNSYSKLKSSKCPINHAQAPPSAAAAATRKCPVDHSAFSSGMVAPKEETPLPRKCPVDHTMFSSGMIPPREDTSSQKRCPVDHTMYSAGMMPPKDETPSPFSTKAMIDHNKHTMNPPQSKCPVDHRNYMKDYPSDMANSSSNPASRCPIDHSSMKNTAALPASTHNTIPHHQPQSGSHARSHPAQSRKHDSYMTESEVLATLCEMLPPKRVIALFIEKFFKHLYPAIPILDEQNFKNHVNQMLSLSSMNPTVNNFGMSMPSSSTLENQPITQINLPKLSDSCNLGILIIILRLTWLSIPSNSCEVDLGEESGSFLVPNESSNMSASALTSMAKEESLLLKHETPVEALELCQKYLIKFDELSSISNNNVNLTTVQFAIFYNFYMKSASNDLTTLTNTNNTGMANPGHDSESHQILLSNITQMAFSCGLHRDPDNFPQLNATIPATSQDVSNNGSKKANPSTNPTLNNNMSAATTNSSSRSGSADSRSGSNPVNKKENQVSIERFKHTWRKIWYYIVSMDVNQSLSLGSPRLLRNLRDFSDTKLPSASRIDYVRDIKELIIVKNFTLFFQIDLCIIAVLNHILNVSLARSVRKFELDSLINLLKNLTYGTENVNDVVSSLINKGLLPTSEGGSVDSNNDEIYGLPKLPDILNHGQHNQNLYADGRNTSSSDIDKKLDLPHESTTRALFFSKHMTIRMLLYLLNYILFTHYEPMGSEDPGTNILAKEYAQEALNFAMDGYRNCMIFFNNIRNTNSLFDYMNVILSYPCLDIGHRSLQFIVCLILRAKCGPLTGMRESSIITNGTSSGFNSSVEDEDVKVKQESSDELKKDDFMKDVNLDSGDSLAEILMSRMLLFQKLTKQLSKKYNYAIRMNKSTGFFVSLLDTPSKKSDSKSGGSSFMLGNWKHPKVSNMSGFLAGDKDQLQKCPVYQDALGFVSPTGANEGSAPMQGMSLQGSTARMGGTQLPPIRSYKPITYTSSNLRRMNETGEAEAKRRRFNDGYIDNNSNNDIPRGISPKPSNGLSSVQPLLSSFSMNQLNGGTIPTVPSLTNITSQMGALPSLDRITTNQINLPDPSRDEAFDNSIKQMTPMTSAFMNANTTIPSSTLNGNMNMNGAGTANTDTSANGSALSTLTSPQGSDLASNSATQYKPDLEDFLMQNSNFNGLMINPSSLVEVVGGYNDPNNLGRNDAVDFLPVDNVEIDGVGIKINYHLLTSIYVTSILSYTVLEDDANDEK

Sequence | PBM E-score
ATTTTTCA | 0.0304
AGAAGAGA | -0.208
CCTCCCCG | 0.246
TAACCGCA | 0.165
CGATCAAA | -0.0429
AGGAATTA | 0.17
CACTCGAA | -0.151
CTCTACCA | -0.0837
AGAGGGAT | -0.248
AGTAGTGA | -0.1
AGGGAGGG | 0.13
GGCTATCA | -0.0699
GCGGACAA | 0.304
AAGAGTTG | -0.157
AGTATGCA | -0.171
CAGAGGCG | -0.114
AAGTGAAT | 0.0167
CAGTCTTC | -0.18
TAGTTACA | -0.143
CACCCGGC | 0.282
GTCCGGAC | 0.454
CTCGCCAG | -0.168

Sequence | PBM E-score
ACTCGCTG | 0.0106
GTTCCAAC | 0.0858
ACCTCAGG | -0.269
ACCAATCG | 0.0386
AGAATGAC | -0.118
AAGTCGGA | 0.169
AATCAGAT | -0.149
TGCCGCCA | -0.0312
GAAGGAAC | 0.00601
CGTATACG | 0.122
AACTAGAC | 0.0207
AGCTCGAG | -0.09
GAATTTCC | 0.198
ATCAGGCC | 0.0138
GAGCGCAC | 0.138
GTCATATA | -0.0533
CGGAAGAG | 0.139
GGATATGA | 0.114
AAAAATAC | -0.00066
ACAAACTC | 0.0453
ACCTACGG | 0.0993
CTCTCGAA | -0.332

Sequence | PBM E-score
GTGAACTA | -0.0762
GCCCGCCC | 0.179
GTTAACCA | -0.099
CACAGTAA | -0.213
GAAAGTGC | -0.0198
CTTTAAGA | 0.112
GAGCGACA | -0.0576
GCTGAGCA | -0.254
ACCGTTCA | 0.101
ACGCAGAC | -0.217
ATGGGTGG | -0.0114
ATGTGACG | -0.166
GTGCAAGA | -0.0817
ACTCACAT | -0.261
ATTATTCC | 0.227
AAAAGAAC | -0.0884
CTCGATAA | -0.00886
CCCCGTCG | 0.0558
AGACACAT | -0.14
GTAGCTGA | -0.121
CGAAGGTA | 0.0118
GCACAGAC | 0.0195

Sequence | PBM E-score
ACATTTGG | 0.0134
ATAAAGGA | -0.123
AGTAGCGA | -0.215
AGTCCGGA | 0.452
CCAATAAA | 0.0119
GACCTGTA | -0.0141
CTGGTTGA | -0.268
GGAAGCTA | -0.0132
CGGTATGC | 0.131
AGACACAG | -0.202
CACCACGA | -0.096
ACGGCATG | 0.0675
CAGTATGA | -0.125
AAAATAAT | -0.0158
TCGCGAAA | 0.226
TACGAGAA | -0.0208
CCGCATCG | 0.149
TGAAATAA | -0.17
CTAAAATC | 0.0164
GCTTTTAA | 0.184
AACAGGAG | -0.12
CGCGTGAC | 0.0236

Sequence | PBM E-score
GTGGTACA | -0.216
ACCGCTTG | 0.0486
CAACGGGA | 0.0811
CGACATCC | 0.0972
ACGTTCTA | -0.159
AAGGCAAA | -0.28
AGATTTCC | 0.161
CTGGTCTA | -0.142
GCCGACTA | 0.0842
AGTAGAAT | -0.224
GCCGGAGA | 0.372
CTGCGCTA | -0.139
CCATGACG | -0.0309
AGACGAGC | -0.272
GCCTCCAA | -0.124
CTTTATAC | 0.152
CGCCAGAC | -0.101
ACAAGTAA | -0.176
CAGACTCC | -0.146
GAATACCC | 0.178
ATGATTCA | -0.2

Source: the supplement of paper PMC3334620
